# The source gives no read counts; variants with many changes may rest on few reads.
# B1: CPEB3 Ribozyme (parent)
# chain: UAACAGGGGGCCACAGCAGAAGCGUUCACGUCGCAGCCCCUGUCAGAUUCUGGUGAAUCUGCGAAUUCUGCUGUAUAUCUC
# Variants of: B1
# Assay: self-cleavage, relative activity (ratio to wild type); higher = more cleavage; in vitro, sequencing
# Summary of the method: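 Libraries of CPEB3 self-cleaving ribozyme mutants came from rounds of error-prone PCR and carried barcodes, which DNA sequencing matched to variants. In vitro transcription used T7 RNA polymerase at 37°C for 5 hours, with a further 15 min in DNase I before EDTA stopped the reaction; the ribozymes cleaved during both steps. The RNA was reverse transcribed with template switching and sequenced on Illumina. Relative activity is the cleaved/total read fraction of a variant divided by that of the unmutated ribozyme, averaged over three batches with at least 5 reads.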
row,Variant,self-cleavage
1,U51A U67C G70A U74C,0.32
2,G53A U58C U67C,0.41
3,A45U U58C A64G U67C,0.1
4,G46U A47G U51A U54C G73U,0.17
5,U54C U58C U67A,0.15
6,G53C C71U U80C,1.21
7,A45U U51G A56C G63A U72C A75G,0.09
8,U54C U60C U72A,0.4
9,U48C A65C C71U U78A,0.1
10,U51C A57U A65G,0.36
11,A47G U48C A56G U76A,0.4
12,A47G A57G A65G U67A U69C U78C,0.17
13,U54A U60A C71U,0.49
14,U51A A56U C59U A65G,0.21
15,U49A U69C U74C,0.76
16,C50U U60C U66C U80C,0.16
17,A47G U48C U60G,0.14
18,U54C A57U A64G U69C,0.19
19,A47G U49C A57G A64G,0.1
20,U51C U58C U60C,0.33
21,U48C U51C A56G,0.48
22,U51C A57G U58C A64G,0.26
23,A47G C50A U54C U60C,0.09
24,U54C U67A U72C U74C,0.73

row,Variant,self-cleavage
1,U51C U66C U74C,0.52
2,U49C G52A A56G U60A A64G,0.41
3,A47G U48A A64U U74C,0.12
4,U54C U60C U80C,0.76
5,U51C G70A U72C U78C,0.51
6,U48C G55U U72C,0.52
7,A45U A65U U72C C81A,0.27
8,A56G C68A U74A,0.41
9,A45U U74A C79U,1.19
10,U49C U67A U78C,0.32
11,A56G A57U A77G,0.26
12,U48C C50U A57U,0.41
13,U51C U66C U76A U80A,0.62
14,G52A U69C A77U,0.92
15,G52U A56G U78G,0.75
16,G53A U72A U74G,1.1
17,U49A G53C G73U A75U,1.19
18,A47G U66A U78C,0.3
19,A47G U60C U66C,0.21
20,A56G A57G U69C U72A A77C,0.12
21,U49A A56G C62U U66C U67A,0.09
22,G53A U60A A77G,0.56
23,A47G U67C U78C,0.14
24,G52U A64U U80C,0.5

row,Variant,self-cleavage
1,U49G U67C U74A,0.14
2,A45U A64G A75U,0.52
3,A45U A64G A75G,0.32
4,U49C U51C A57U U74A,0.22
5,U48C U49C U60C U66C U72A U80C,0.15
6,A47U A56G A57G U60A,0.16
7,U51C U60C U78A,0.58
8,U54C A64G U72C U74C,0.69
9,G52A A65G C71A,0.26
10,G52U U69C U72A,0.28
11,A47G U54A U58A U60C,0.41
12,U51G U60C U66C,0.17
13,G46A U54C U72A A77G,0.08
14,A47G A57G U72C U78C,0.67
15,U51C A57C U60G,0.25
16,U54C A56G U80C,0.52
17,U54C U69A U80G,0.6
18,U49A U60C U66A U72G,0.42
19,U49C U54C U66C,0.16
20,U54C A57G U80C,0.53
21,U48A U49C U60A U67C,0.1
22,U48C U60A U72C U78C,0.24
23,U49C U51C A65G U80C,0.1
24,A45U U51A U60C,0.34

row,Variant,self-cleavage
1,U49C U51A U66C,0.23
2,U54G U60C U67A,0.2
3,U49A G63A C79A,0.81
4,U48G A57G A75U,0.67
5,U54A A77C U78C,1.08
6,A47G U48C G53U,0.26
7,G46A A57G U72A,0.13
8,G46A U60A U67C,0.14
9,A47G U66C U80C,0.26
10,U49A U60A U66C U80G,0.15
11,U49A U51A U67C A77U,0.11
12,U54A A57G U58A U69A,0.18
13,A56G A57G G73A U74A,0.87
14,A47C U58C U60C G73U,0.17
15,U49A A56G A64U U69A A77G U80C,0.13
16,A47G U49C G55U U74G,0.41
17,A47G U54C U69A,0.62
18,A47U U78C U80C,0.4
19,G53A U60A U66C,0.41
20,U49C A56G U72A,1.07
21,U49C A56G U72G,0.5
22,U49A C50U C62U A64U,0.26
23,U48C A64U A75U,0.28
24,A47G U49C A57U A75G,0.36

row,Variant,self-cleavage
1,G46A U51C U67C,0.12
2,A45U U51C U69A U72A,0.19
3,U48C A64U A65U U67A,0.2
4,G46C A57G U67C U72C G73A,0.07
5,U51C A56G U60G,0.28
6,G55A U66A U67G,0.28
7,A47G G53A U72C,1.13
8,U48C U54C A56G U66C,0.16
9,U48C G55C U74C,0.6
10,U49C U66C U78A,0.17
11,A56C U74C U76C,1.16
12,G46A A56G A64U A65U U74C,0.11
13,U49C U74C A75G,0.64
14,G53A A65C U78C,0.13
15,A45U A64U A75U,0.24
16,U48C A56U U67C,0.23
17,U49C A56G U60C U80A,0.5
18,U51C A56G C71U,0.41
19,U49C U54C U69G,0.18
20,C50U U54C U69C,0.51
21,U51C U60C U69C,0.36
22,A47G U48C U69A,0.1
23,U48C A57G A65G U69C U74C,0.19
24,U49C G52C G63U U72C,0.52

row,Variant,self-cleavage
1,A47G U58C C62U,0.14
2,G52U A56U U67A A75G,0.3
3,U48C U72C A75G,1.04
4,A47G A57G A64U U76C,0.29
5,U48C U51A U60C U67C,0.35
6,A47U A56G U60C,0.11
7,U54C A56G C79G,0.89
8,A47G U48C U58A U72A,0.14
9,A47G A64G U66C A77G,0.21
10,A56G A77U U78C,0.85
11,U48A U54A G63A,0.32
12,A47G U54A U72C,1.17
13,U51A G63A U67C U78C,0.51
14,U48C U54C C68G,0.33
15,C50U A65U U67A,0.21
16,U48C U60C C68U U72C U80C,0.17
17,U51C A65G U72C,0.75
18,U49C A64U U69A,0.18
19,G55U U60C U78C,0.24
20,A45U U54C U66C,0.2
21,A56C A65G U66C A77G,0.12
22,U48C U51C U76C,0.4
23,U49C U60A G70A,0.17
24,C50A U54A U80A,1.2

row,Variant,self-cleavage
1,U51C A65G A77G,0.48
2,U54A U60A U66C A77G U80C,0.26
3,U48A A56U A77G U80C,0.21
4,A47G U67C C68A G73A,0.36
5,A47G U51C U54C U78C,0.67
6,U54G U66A U72A A77G U78C,0.18
7,A45U U48C G52A U67C,0.12
8,U51C A57G A77U,0.7
9,A45U U51C U74C,0.79
10,A47G U48C A56C C71U,0.16
11,U48C U51C U66C,0.23
12,U51C A56C U58A G73A,0.25
13,G52A G70U A77G U80A,0.44
14,U51A U58C U67G G70A,0.23
15,U51A U67G U76C,0.32
16,U51C U54A A56G U60A U69A,0.3
17,A45U U48A C68U A77U,0.08
18,U54A C59U U60C U69C,0.27
19,G52A U72C U78C,1.09
20,U49C G53C U74A,0.73
21,G53A U60C A75C,0.81
22,U49C A57G U67A C68G A75U,0
23,U54C U74C U78A,1.23
